Measured values reported in the antibiotic and cytotoxicity screens of Wong et al. (2023).
The other results are listed elsewhere or left out.

Experiments:
[1] = system: HSkMC (human skeletal muscle cells); assay: cytotoxicity call (relative viability < 0.9); settings: 10 µM
[2] = system: S. aureus RN4220; assay: growth inhibition call (relative growth <= 0.2); settings: 50 µM

Structure (SMILES) | cytotoxicity call [1] | growth inhibition call [2]
CC(C)C(=O)NS(=O)(=O)c1ccc(N)cc1 | inactive | inactive
C[C@@H]1CN([C@@H](C)CO)C(=O)c2cc(NC(=O)c3ccncc3)ccc2O[C@@H]1CN(C)Cc1ccc(-c2ccccc2)cc1 | inactive | inactive
NC(=O)NS(=O)(=O)c1ccc(N)cc1 | inactive | inactive
Cc1noc(C)c1NC(=O)N(C)C[C@H]1OCCCC[C@H](C)Oc2ccc(NC(=O)CCC(F)(F)F)cc2C(=O)N([C@@H](C)CO)C[C@H]1C | inactive | inactive
C[C@@H]1CN([C@@H](C)CO)C(=O)Cc2cc(NC(=O)C3CC3)ccc2O[C@@H]1CN(C)S(=O)(=O)c1cccs1 | inactive | inactive
C/C=C(\C(C)=N\O)c1ccccc1 | inactive | inactive
CCCNC(=O)N1C[C@]2(CCN(CC2)S(=O)(=O)c2ccc(cc2)OC)c2c(n(c3cc(ccc23)OC)C)[C@H]1CO | inactive | inactive
C[C@H]1CN([C@@H](C)CO)S(=O)(=O)c2ccc(C#Cc3ccc(F)cc3)cc2O[C@H]1CN(C)S(=O)(=O)c1cn(C)cn1 | inactive | inactive
C[C@H](CO)N1C[C@H](C)[C@H](CN(C)Cc2ccc(Cl)c(Cl)c2)Oc2ccc(NC(=O)Nc3ccc(C(F)(F)F)cc3)cc2CC1=O | active | inactive
O=C(C[C@@H]1C=C[C@@H](NC(=O)c2cnccn2)[C@H](CO)O1)NCc1ccccc1F | inactive | inactive
C[C@@H]1CN([C@H](C)CO)C(=O)c2c(c3ccccc3n2C)-c2ccccc2CO[C@@H]1CN(C)Cc1ccc(O)cc1 | inactive | inactive
Cc1ccc(S(=O)(=O)N(C)C[C@@H]2Oc3ccc(N(C)C)cc3CC(=O)N([C@@H](C)CO)C[C@H]2C)cc1 | inactive | inactive
O=C(N[C@@H](c1ccc(-c2ccccc2)cc1)c1cnccn1)C1CCN(Cc2cccc(C(F)(F)F)c2)CC1 | inactive | inactive
O=C(O)CN1CCOC1=O | inactive | inactive
C[C@H]1CN([C@@H](C)CO)C(=O)c2cc(NC(=O)Cn3cnnn3)ccc2O[C@@H]1CN(C)S(=O)(=O)c1ccc(Cl)cc1 | inactive | inactive
C[C@@H]1CN([C@@H](C)CO)C(=O)c2cc(NC(=O)Cn3cnnn3)ccc2O[C@H]1CN(C)C(=O)Nc1cccc2ccccc12 | inactive | inactive

Structure (SMILES) | cytotoxicity call [1] | growth inhibition call [2]
COCC#Cc1ccc([C@@H]2[C@@H](CO)N3C(=O)CN(C(=O)c4cccnc4)C[C@H]23)cc1 | inactive | inactive
O=C(C[C@H]1CC[C@@H]2[C@H](COC[C@H](O)CN2S(=O)(=O)c2ccc(Cl)cc2)O1)N[C@@H]1CCN(Cc2ccccc2)C1 | inactive | inactive
Cn1c(=O)c2[nH]c(Br)nc2n(C)c1=O | inactive | inactive
C[C@H]1CCCCO[C@@H](CN(C)C(=O)Nc2cccc3ccccc23)[C@@H](C)CN([C@@H](C)CO)C(=O)c2cc(NS(=O)(=O)c3ccc(Cl)cc3)ccc2O1 | inactive | inactive
C[C@H](CO)N1C[C@H](C)[C@H](CN(C)Cc2ccc(Oc3ccccc3)cc2)Oc2ccc(NC(=O)C3CC3)cc2CC1=O | inactive | inactive
C[C@@H]1CN([C@H](C)CO)C(=O)Cc2cc(NS(=O)(=O)c3ccc(F)cc3)ccc2O[C@H]1CN(C)S(=O)(=O)c1cccs1 | inactive | inactive
COc1ccc(NC(=O)Nc2cccc3c2O[C@@H](CN(C)S(C)(=O)=O)[C@H](C)CN([C@H](C)CO)C3=O)cc1 | inactive | inactive
Cc1ccc(S(=O)(=O)Nc2ccc3c(c2)C(=O)N([C@@H](C)CO)C[C@H](C)[C@H](CN(C)C(=O)Nc2ccc(F)cc2)OCCCC[C@@H](C)O3)cc1 | inactive | inactive
C[C@@H]1CN([C@H](C)CO)C(=O)c2c(c3ccccc3n2C)-c2ccccc2CO[C@H]1CN(C)C(=O)Nc1cccc(Cl)c1Cl | inactive | inactive
COc1cc2nc(N3CCCN(Cc4ccccc4)CC3)nc(Nc3ccc(F)c(Cl)c3)c2cc1OC | active | inactive
NC(=O)c1cccc(Br)n1 | inactive | inactive
Cc1ccc(S(=O)(=O)N[C@@H]2CC[C@@H](CC(=O)NCc3ccc(Cl)c(Cl)c3)O[C@@H]2CO)cc1 | inactive | inactive
COc1ccc(S(=O)(=O)N(C)C[C@@H]2Oc3ncc(C#CCN(C)C)cc3C(=O)N([C@H](C)CO)C[C@@H]2C)cc1 | inactive | inactive
COc1ccc(S(=O)(=O)N(C)C[C@H]2Oc3c(NC(=O)Nc4cccc5ccccc45)cccc3C(=O)N([C@H](C)CO)C[C@H]2C)cc1 | inactive | inactive
O=C(C[C@H]1CC=CC[C@H](NC(=O)OCC2c3ccccc3-c3ccccc32)C(=O)OCCNC1=O)NCCO | inactive | inactive
